# According to the supplement of paper PMC8728848:
# The other results are listed elsewhere or left out.
# B1: Gal 3 (Homo sapiens), P17931 (protein)
# chain: MADNFSLHDALSGSGNPNPQGWPGAWGNQPAGAGGYPGASYPGAYPGQAPPGAYPGQAPPGAYHGAPGAYPGAPAPGVYPGPPSGPGAYPSSGQPSAPGAYPATGPYGAPAGPLIVPYNLPLPGGVVPRMLITILGTVKPNANILDFQRGNDVAFHFNPRFNENNRRVIVCNTKLDNNWGREESQSVFPFESGKPFKIQVLVEPDHFKVAVNDAHLLQYNHRVKKLNEISKLGISGDIDLTSASYTMI
# Legend:
# Assay in all cases: glycan array binding signal (z-score within array); higher = stronger binding
# Settings in all cases: glycan notation: IUPAC condensed, linker removed; mutation: R186S
# [1] = molecular target: Gal(b1-4)GlcNAc(b1-2)Man(a1-6)[GlcNAc(b1-2)Man(a1-3)]Man(b1-4)GlcNAc(b1-4)GlcNAc
# Summary of the method: (§1)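 From the Consortium for Functional Glycomics database, 3228 arrays were curated, keeping only those whose protein sequence was available. Binding is given as a within-array Z-score averaged across arrays sharing a protein sequence and across linkers. Negative Z-scores can be read as non-binding.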
# [2] = molecular target: Gal(b1-4)GlcNAc(b1-2)Man(a1-6)[Man(a1-3)]Man(b1-4)GlcNAc(b1-4)GlcNAc
# Summary of the method: as §1
# [3] = molecular target: Gal(b1-4)GlcNAc(b1-2)[Gal(b1-4)GlcNAc(b1-4)]Man(a1-3)[Gal(b1-4)GlcNAc(b1-2)Man(a1-6)]Man(b1-4)GlcNAc(b1-4)GlcNAc
# Summary of the method: as §1
# [4] = molecular target: Gal(b1-4)GlcNAc(b1-2)[Gal(b1-4)GlcNAc(b1-4)]Man(a1-3)[Gal(b1-4)GlcNAc(b1-2)[Gal(b1-4)GlcNAc(b1-6)]Man(a1-6)]Man(b1-4)GlcNAc(b1-4)GlcNAc
# Summary of the method: as §1
# [5] = molecular target: Gal(b1-4)GlcNAc(b1-3)Gal(b1-3)GlcNAc
# Summary of the method: as §1
# [6] = molecular target: Gal(b1-4)GlcNAc(b1-3)Gal(b1-4)Glc
# Summary of the method: as §1
# [7] = molecular target: Gal(b1-4)GlcNAc(b1-3)Gal(b1-4)GlcNAc
# Summary of the method: as §1
# [8] = molecular target: Gal(b1-4)GlcNAc(b1-3)Gal(b1-4)GlcNAc(b1-3)Gal(b1-4)GlcNAc
# Summary of the method: as §1
# [9] = molecular target: Gal(b1-4)GlcNAc(b1-3)Gal(b1-4)[Fuc(a1-3)]GlcNAc(b1-3)Gal(b1-4)[Fuc(a1-3)]GlcNAc
# Summary of the method: as §1
# [10] = molecular target: Gal(b1-4)GlcNAc(b1-3)GalNAc
# Summary of the method: as §1
# [11] = molecular target: Gal(b1-4)GlcNAc(b1-3)[Gal(b1-4)GlcNAc(b1-6)]Gal(b1-4)GlcNAc
# Summary of the method: as §1
# [12] = molecular target: Gal(b1-4)GlcNAc(b1-3)[Gal(b1-4)GlcNAc(b1-6)]GalNAc
# Summary of the method: as §1
# [13] = molecular target: Gal(b1-4)GlcNAc(b1-3)[GlcNAc(b1-6)]Gal(b1-4)GlcNAc
# Summary of the method: as §1
# [14] = molecular target: Gal(b1-4)GlcNAc(b1-6)Gal(b1-4)GlcNAc
# Summary of the method: as §1
# [15] = molecular target: Gal(b1-4)GlcNAc(b1-6)GalNAc
# Summary of the method: as §1
# [16] = molecular target: Gal(b1-4)GlcNAc(b1-6)[Gal(b1-3)]GalNAc
# Summary of the method: as §1
# Gal3S(b1-3)GalNAc = molecular target: Gal3S(b1-3)GalNAc
# Summary of the method: as §1
# Gal3S(b1-3)GlcNAc = molecular target: Gal3S(b1-3)GlcNAc
# Summary of the method: as §1
# [17] = molecular target: Gal3S(b1-3)[Fuc(a1-4)]GlcNAc
# Summary of the method: as §1
# Gal3S(b1-4)Glc = molecular target: Gal3S(b1-4)Glc
# Summary of the method: as §1
# Gal3S(b1-4)Glc6S = molecular target: Gal3S(b1-4)Glc6S
# Summary of the method: as §1
# Gal3S(b1-4)GlcNAc = molecular target: Gal3S(b1-4)GlcNAc
# Summary of the method: as §1
# Gal3S(b1-4)GlcNAc6S = molecular target: Gal3S(b1-4)GlcNAc6S
# Summary of the method: as §1
# [18] = molecular target: Gal3S(b1-4)[Fuc(a1-3)]Glc
# Summary of the method: as §1
# [19] = molecular target: Gal3S(b1-4)[Fuc(a1-3)]Glc6S
# Summary of the method: as §1
# Gal3S4S(b1-4)GlcNAc = molecular target: Gal3S4S(b1-4)GlcNAc
# Summary of the method: as §1
# Gal3S6S(b1-4)GlcNAc = molecular target: Gal3S6S(b1-4)GlcNAc
# Summary of the method: as §1
# Gal3S6S(b1-4)GlcNAc6S = molecular target: Gal3S6S(b1-4)GlcNAc6S
# Summary of the method: as §1
# Gal4S(b1-4)GlcNAc = molecular target: Gal4S(b1-4)GlcNAc
# Summary of the method: as §1
# Gal4S6S(b1-4)GlcNAc = molecular target: Gal4S6S(b1-4)GlcNAc
# Summary of the method: as §1
# Gal6S(b1-4)Glc = molecular target: Gal6S(b1-4)Glc
# Summary of the method: as §1
# Gal6S(b1-4)Glc6S = molecular target: Gal6S(b1-4)Glc6S
# Summary of the method: as §1
# Gal6S(b1-4)GlcNAc = molecular target: Gal6S(b1-4)GlcNAc
# Summary of the method: as §1
# Gal6S(b1-4)GlcNAc6S = molecular target: Gal6S(b1-4)GlcNAc6S
# Summary of the method: as §1
# GalNAc(a1-3)Gal = molecular target: GalNAc(a1-3)Gal
# Summary of the method: as §1
# GalNAc(a1-3)GalNAc = molecular target: GalNAc(a1-3)GalNAc
# Summary of the method: as §1
# [20] = molecular target: GalNAc(a1-3)GalNAc(a1-3)Gal(a1-4)Gal(b1-4)GlcNAc
# Summary of the method: as §1
# GalNAc(b1-3)Gal = molecular target: GalNAc(b1-3)Gal
# Summary of the method: as §1
binder,measurement,setting,value
B1,glycan array binding signal (z-score),[1],-0.084
same,glycan array binding signal (z-score),[2],-0.047
same,glycan array binding signal (z-score),[3],-0.042
same,glycan array binding signal (z-score),[4],-0.075
same,glycan array binding signal (z-score),[5],-0.007
same,glycan array binding signal (z-score),[6],-0.058
same,glycan array binding signal (z-score),[7],-0.061
same,glycan array binding signal (z-score),[8],-0.073
same,glycan array binding signal (z-score),[9],-0.022
same,glycan array binding signal (z-score),[10],-0.026
same,glycan array binding signal (z-score),[11],-0.065
same,glycan array binding signal (z-score),[12],-0.058
same,glycan array binding signal (z-score),[13],-0.022
same,glycan array binding signal (z-score),[14],-0.078
same,glycan array binding signal (z-score),[15],-0.073
same,glycan array binding signal (z-score),[16],-0.024
same,glycan array binding signal (z-score),Gal3S(b1-3)GalNAc,-0.059
same,glycan array binding signal (z-score),Gal3S(b1-3)GlcNAc,-0.072
same,glycan array binding signal (z-score),[17],-0.06
same,glycan array binding signal (z-score),Gal3S(b1-4)Glc,-0.037
same,glycan array binding signal (z-score),Gal3S(b1-4)Glc6S,-0.069
same,glycan array binding signal (z-score),Gal3S(b1-4)GlcNAc,-0.064
same,glycan array binding signal (z-score),Gal3S(b1-4)GlcNAc6S,-0.024
same,glycan array binding signal (z-score),[18],-0.082
same,glycan array binding signal (z-score),[19],-0.016
same,glycan array binding signal (z-score),Gal3S4S(b1-4)GlcNAc,-0.071
same,glycan array binding signal (z-score),Gal3S6S(b1-4)GlcNAc,-0.069
same,glycan array binding signal (z-score),Gal3S6S(b1-4)GlcNAc6S,-0.055
same,glycan array binding signal (z-score),Gal4S(b1-4)GlcNAc,-0.085
same,glycan array binding signal (z-score),Gal4S6S(b1-4)GlcNAc,0.002
same,glycan array binding signal (z-score),Gal6S(b1-4)Glc,-0.063
same,glycan array binding signal (z-score),Gal6S(b1-4)Glc6S,-0.06
same,glycan array binding signal (z-score),Gal6S(b1-4)GlcNAc,-0.067
same,glycan array binding signal (z-score),Gal6S(b1-4)GlcNAc6S,-0.066
same,glycan array binding signal (z-score),GalNAc(a1-3)Gal,-0.075
same,glycan array binding signal (z-score),GalNAc(a1-3)GalNAc,-0.071
same,glycan array binding signal (z-score),[20],-0.072
same,glycan array binding signal (z-score),GalNAc(b1-3)Gal,-0.043
